Data: article PMC13423814
A number of entries come with more than one value. They are shown here; other results are not. An entry can have further records. Some protein pairs were linked at several places, one record each.

Key:
Settings in all cases: DSSO, in cells
[1] = target: EBNA1BP2 (UniProt Q99848)
[2] = target: CCT3 (UniProt P49368)
[3] = target: CCT6A (UniProt P40227)
[4] = target: TCP1 (UniProt P17987)
[5] = target: CYCS (UniProt P99999)
[6] = target: PHB2 (UniProt Q99623)
[7] = target: BCLAF1 (UniProt Q9NYF8)
Sequence of UniProt Q9NYF8 (Q9NYF8 whole entry): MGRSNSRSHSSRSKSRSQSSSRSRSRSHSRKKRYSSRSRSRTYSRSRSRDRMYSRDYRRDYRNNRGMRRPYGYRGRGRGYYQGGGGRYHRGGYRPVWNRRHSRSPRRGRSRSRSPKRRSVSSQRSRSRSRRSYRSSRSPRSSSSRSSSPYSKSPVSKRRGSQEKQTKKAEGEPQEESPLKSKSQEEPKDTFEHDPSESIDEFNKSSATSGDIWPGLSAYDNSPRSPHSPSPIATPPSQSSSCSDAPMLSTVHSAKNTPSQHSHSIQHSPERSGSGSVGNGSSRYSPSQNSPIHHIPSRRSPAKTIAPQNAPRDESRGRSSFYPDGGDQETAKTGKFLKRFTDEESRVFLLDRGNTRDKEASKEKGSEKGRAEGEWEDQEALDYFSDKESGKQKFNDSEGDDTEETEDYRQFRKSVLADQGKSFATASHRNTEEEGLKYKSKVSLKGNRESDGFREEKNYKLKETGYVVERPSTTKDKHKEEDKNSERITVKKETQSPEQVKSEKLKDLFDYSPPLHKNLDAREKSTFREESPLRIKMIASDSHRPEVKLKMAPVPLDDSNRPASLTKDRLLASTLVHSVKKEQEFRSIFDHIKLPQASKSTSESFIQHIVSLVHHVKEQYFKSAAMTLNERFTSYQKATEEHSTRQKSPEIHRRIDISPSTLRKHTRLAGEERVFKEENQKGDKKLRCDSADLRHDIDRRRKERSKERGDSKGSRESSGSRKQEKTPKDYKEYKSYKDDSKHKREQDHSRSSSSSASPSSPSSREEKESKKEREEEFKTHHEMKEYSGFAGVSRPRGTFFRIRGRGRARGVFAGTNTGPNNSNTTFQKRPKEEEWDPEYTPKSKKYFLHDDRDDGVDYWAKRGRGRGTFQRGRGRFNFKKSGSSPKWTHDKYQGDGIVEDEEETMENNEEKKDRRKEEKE

[8] = target: CHTOP (UniProt Q9Y3Y2)
Sequence of UniProt Q9Y3Y2 (Q9Y3Y2 whole entry): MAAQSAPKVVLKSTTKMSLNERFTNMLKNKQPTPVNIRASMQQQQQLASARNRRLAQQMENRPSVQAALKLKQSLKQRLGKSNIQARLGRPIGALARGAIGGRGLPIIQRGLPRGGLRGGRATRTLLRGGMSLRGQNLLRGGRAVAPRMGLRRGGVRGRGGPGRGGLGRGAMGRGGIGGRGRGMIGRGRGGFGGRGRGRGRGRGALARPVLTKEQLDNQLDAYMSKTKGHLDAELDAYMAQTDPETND

[9] = target: THRAP3 (UniProt Q9Y2W1)
[10] = target: BOP1 (UniProt Q14137)
[11] = target: AP2M1 (UniProt Q96CW1)
[12] = target: CHMP2B (UniProt Q9UQN3)
[13] = target: CNPY2 (UniProt Q9Y2B0)
Sequence of UniProt Q9Y2B0 (Q9Y2B0 whole entry): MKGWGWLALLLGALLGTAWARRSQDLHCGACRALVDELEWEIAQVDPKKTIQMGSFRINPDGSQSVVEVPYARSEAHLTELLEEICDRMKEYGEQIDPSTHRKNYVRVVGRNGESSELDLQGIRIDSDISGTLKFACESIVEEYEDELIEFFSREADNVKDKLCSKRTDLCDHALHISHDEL

[14] = target: FLOT2 (UniProt Q14254)
Sequence of UniProt Q14254 (Q14254 whole entry): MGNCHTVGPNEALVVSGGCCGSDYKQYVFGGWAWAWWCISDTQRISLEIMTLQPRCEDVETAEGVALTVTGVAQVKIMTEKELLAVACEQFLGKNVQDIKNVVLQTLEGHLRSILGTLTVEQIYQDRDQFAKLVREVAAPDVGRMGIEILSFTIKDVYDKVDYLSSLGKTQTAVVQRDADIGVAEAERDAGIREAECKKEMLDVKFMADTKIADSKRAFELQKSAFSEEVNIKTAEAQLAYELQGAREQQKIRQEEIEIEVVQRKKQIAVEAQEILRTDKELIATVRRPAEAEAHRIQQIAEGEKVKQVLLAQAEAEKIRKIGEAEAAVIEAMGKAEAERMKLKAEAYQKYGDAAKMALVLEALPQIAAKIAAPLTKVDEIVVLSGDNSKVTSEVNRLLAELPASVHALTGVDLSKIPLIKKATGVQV

[15] = target: CCT2 (UniProt P78371)
Sequence of UniProt P78371 (P78371 whole entry): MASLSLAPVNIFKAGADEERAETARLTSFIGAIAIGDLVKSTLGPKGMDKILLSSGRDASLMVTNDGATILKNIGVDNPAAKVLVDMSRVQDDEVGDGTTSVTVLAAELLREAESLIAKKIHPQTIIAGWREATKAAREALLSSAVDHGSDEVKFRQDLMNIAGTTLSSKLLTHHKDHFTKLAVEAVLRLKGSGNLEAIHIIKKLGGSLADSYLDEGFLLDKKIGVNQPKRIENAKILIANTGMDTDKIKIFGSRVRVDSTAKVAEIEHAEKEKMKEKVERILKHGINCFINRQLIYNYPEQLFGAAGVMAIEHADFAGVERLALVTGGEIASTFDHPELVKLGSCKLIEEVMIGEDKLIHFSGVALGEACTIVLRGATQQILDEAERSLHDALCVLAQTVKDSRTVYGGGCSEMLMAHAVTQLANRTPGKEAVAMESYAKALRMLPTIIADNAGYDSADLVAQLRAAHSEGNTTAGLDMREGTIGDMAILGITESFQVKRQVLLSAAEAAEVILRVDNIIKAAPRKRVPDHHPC

[16] = target: CCT4 (UniProt P50991)
Sequence of UniProt P50991 (P50991 whole entry): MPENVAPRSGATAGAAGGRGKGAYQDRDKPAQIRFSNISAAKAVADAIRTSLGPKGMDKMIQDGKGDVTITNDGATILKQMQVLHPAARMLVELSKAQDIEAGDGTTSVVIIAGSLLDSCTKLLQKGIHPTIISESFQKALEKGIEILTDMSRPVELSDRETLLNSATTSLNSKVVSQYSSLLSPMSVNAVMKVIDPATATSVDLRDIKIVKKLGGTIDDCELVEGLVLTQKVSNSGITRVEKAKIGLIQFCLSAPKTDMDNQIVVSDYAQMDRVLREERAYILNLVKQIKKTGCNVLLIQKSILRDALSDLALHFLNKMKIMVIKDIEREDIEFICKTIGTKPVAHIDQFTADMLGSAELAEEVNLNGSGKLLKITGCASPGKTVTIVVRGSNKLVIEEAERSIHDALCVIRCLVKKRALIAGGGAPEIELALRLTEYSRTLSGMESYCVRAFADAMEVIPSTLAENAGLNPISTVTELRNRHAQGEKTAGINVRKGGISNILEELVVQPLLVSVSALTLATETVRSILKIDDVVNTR

[17] = target: CCT7 (UniProt Q99832)

Sequence of UniProt P40227 (P40227 whole entry): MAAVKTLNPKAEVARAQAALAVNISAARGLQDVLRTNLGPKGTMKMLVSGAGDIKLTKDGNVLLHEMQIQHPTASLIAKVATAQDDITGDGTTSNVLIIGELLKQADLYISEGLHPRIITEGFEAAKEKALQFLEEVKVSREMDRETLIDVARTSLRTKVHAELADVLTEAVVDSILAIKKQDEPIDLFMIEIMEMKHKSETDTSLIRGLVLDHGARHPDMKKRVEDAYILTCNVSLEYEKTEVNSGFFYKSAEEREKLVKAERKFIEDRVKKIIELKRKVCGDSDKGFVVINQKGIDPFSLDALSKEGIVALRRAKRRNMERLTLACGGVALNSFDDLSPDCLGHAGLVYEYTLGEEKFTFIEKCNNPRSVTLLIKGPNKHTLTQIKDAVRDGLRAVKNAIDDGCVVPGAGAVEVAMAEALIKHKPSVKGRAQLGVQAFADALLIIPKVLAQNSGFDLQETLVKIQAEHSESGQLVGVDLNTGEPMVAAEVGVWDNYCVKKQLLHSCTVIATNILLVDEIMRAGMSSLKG
Sequence of UniProt Q99623 (Q99623 whole entry): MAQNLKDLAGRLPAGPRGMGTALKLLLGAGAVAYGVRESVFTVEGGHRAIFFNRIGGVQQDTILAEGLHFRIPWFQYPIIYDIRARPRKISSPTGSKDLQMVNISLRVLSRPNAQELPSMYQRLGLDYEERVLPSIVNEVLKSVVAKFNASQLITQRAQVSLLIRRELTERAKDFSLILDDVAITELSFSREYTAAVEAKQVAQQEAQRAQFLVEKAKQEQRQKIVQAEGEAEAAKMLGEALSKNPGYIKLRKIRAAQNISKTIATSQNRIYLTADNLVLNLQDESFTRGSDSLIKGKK
Sequence of ERH (P84090 whole entry): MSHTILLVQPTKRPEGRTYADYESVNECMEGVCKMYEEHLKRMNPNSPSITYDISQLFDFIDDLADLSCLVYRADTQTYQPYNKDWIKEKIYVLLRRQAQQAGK
Sequence of CCT5 (P48643 whole entry): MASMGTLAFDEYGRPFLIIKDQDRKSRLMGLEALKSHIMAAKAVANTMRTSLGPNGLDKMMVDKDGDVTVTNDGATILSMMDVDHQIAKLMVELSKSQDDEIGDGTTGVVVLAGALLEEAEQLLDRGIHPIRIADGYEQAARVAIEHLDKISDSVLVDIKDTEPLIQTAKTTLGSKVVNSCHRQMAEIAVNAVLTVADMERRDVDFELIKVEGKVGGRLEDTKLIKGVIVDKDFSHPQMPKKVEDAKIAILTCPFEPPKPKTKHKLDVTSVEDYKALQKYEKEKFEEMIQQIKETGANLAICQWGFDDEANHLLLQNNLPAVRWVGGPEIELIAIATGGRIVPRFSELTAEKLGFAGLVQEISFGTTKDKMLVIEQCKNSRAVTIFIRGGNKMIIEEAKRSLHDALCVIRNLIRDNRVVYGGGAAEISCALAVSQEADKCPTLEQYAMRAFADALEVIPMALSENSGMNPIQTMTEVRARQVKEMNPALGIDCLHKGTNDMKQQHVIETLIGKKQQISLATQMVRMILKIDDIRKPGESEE
Sequence of PDCD5 (O14737 whole entry): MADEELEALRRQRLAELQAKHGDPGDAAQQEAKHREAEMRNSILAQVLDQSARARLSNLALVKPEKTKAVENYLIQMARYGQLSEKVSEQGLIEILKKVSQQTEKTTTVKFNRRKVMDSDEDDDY
Sequence of PHB1 (P35232 whole entry): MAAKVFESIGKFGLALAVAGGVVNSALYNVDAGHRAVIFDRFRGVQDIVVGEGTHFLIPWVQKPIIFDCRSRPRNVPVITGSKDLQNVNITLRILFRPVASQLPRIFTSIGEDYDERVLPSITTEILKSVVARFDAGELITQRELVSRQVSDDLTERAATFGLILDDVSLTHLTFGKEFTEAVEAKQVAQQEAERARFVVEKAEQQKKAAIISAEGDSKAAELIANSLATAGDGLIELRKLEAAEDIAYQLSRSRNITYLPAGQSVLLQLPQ
Sequence of UniProt P99999 (P99999 whole entry): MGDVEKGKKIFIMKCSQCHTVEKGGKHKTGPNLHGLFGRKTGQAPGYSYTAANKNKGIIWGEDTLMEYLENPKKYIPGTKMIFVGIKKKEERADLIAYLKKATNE

For RRS1, Q15050, the cross-linked residues [1] was “K184 - K127 and K184 - K229”.

In the case of PDCD5, O14737, the cross-linked residues [2] was “K20 - K21 and K20 - K249 and K97 - K527 and K97 - K529 and K98 - K527”, the cross-linked residues [3] was “K20 - K5 and K20 - K530 and K33 - K530” and the cross-linked residues [4] was “K105 - K532 and K105 - K538”.

In the case of PHB1, P35232, the cross-linked residues [5] was “K208 - T41 and K208 - K54” and the cross-linked residues [6] was “K83 - K200 and K128 - K89 and K186 - K97 and K186 - K200 and K202 - K200 and K202 - K216 and K202 - K224 and K202 - K262 and K207 - K236”.

In the case of ERH, P84090, the cross-linked residues [7] was “T11 - K580 and T11 - K593 and T11 - K622 and K90 - K676”, the cross-linked residues [8] was “T11 - K8 and T11 - K12 and T11 - K16 and K41 - K12 and K90 - K30” and the cross-linked residues [9] was “T11 - K551 and T11 - K602”.

For PES1, O00541, the cross-linked residues [10] was “K56 - K339 and K564 - K339”.

With AP2B1, P63010 the cross-linked residues [11] was “K31 - K139 and K282 - K281”.

In the case of CHMP1B, Q7LBR1, the cross-linked residues [12] was “K87 - K130 and K90 - K130”.

In the case of HSP90B1, P14625, the cross-linked residues [13] was “K161 - K49 and K168 - K49”.

With FLOT1, O75955 the cross-linked residues [14] was “K184 - K169 and K219 - K211 and K285 - K280 and K340 - K350 and K422 - K350”.

CCT5, P48643 was tested, and the cross-linked residues [15] was “K42 - K13 and K176 - K135 and K232 - K248 and K232 - K250 and K265 - T242 and Y274 - K284 and K275 - T246 and K275 - K263 and K392 - K82 and K496 - K135 and K535 - K13”, the cross-linked residues [16] was “K42 - K21 and K42 - K126 and K483 - S134” and the cross-linked residues [17] was “K368 - K250 and K392 - K250”.
